The other results are listed elsewhere or left out. At the low end of the ranking the order means little.

The experiment has as its target T1, GST-Rok (full length) (UniProt O34857).
T1 sequence: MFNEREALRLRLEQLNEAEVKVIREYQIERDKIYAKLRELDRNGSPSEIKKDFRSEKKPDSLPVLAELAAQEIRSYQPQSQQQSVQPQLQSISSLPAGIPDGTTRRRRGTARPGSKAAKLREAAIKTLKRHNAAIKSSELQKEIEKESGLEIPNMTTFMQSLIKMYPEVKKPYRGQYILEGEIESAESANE
Put plainly: protein binding microarray.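 Further: rank score from −0.5 (least bound) to 0.5 (best bound).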 The settings on record: Rok is a gene silencer of Bacillus subtilis; high values mean tight binding; most listed sequences are background and not binding sites; double strand, one strand shown.
For the sequence AATATCTA, the binding signal was determined as 0.392 E-score.

For the sequence CAGTCATG, the binding signal was -0.0718 E-score.

With CATAGGGA, the binding signal is -0.158 E-score.

Consider AACTAACC, for which the binding signal came to 0.0534 E-score.

For ACAGCCAA, the binding signal is -0.0632 E-score.

With CTATTACA, the binding signal was 0.293 E-score.

CTTGTGAC registered a binding signal of -0.182 E-score.

Take ACTGAGTA: the binding signal was found to be 0.122 E-score.

For the sequence AGAATCAC, the binding signal stood at 0.0697 E-score.

In turn, TAGGCTCA yielded a binding signal of -0.1 E-score.

On to CAACGCGA, for which the binding signal was found to be 0.0653 E-score.

AAGCATGT gave a binding signal of -0.0163 E-score.

AAAGAAGA had a binding signal of -0.157 E-score.

With AGGGAGCC, the binding signal was -0.395 E-score.

In the case of GTCGGACA, the binding signal is -0.126 E-score.

For AAAACTCA, the binding signal was found to be 0.0983 E-score.

The sequence GGCTTAAC yielded a binding signal of -0.123 E-score.

For the sequence CACATAAG, the binding signal is 0.136 E-score.

For CTCGACAA, the binding signal is -0.125 E-score.

In the case of GTCAAATA, the binding signal was 0.128 E-score.

In turn, AGAAGGCA yielded a binding signal of -0.151 E-score.

As to AGGAGGAC, the binding signal was -0.307 E-score.

As to AGGTCACA, the binding signal is -0.201 E-score.

As to AAAAGGCG, the binding signal is -0.0527 E-score.

CCTCTGAG had a binding signal of -0.15 E-score.

CCCTCTAG showed a binding signal of -0.245 E-score.

For the sequence GCGGATCC, the binding signal is -0.241 E-score.

Turning to AGTTCAGC, the binding signal came to 0.0483 E-score.

TAAACCGA had a binding signal of 0.0213 E-score.

In turn, CACCCGTA displayed a binding signal of -0.134 E-score.

With CACCAGGC, the binding signal was -0.158 E-score.

On to CTTGGGAA, for which the binding signal was -0.123 E-score.

Sequence CGTGACGA gave a binding signal of -0.252 E-score.

For the sequence AGATAGGG, the binding signal was -0.0883 E-score.

In turn, GAAATGGC gave a binding signal of -0.138 E-score.

In turn, GCGATAGC gave a binding signal of -0.368 E-score.

As for GATTGGCA, the binding signal was -0.0381 E-score.

Turning to AGTCTCGA, the binding signal was 0.0181 E-score.

The sequence ATTAAGAA showed a binding signal of 0.154 E-score.

As for CGATTCTA, the binding signal worked out at 0.294 E-score.

Regarding AGGTTCTG, the binding signal came to 0.0681 E-score.

The sequence CTCGCCAC gave a binding signal of -0.0895 E-score.

Consider ATGAGGCG, for which the binding signal was -0.173 E-score.

Sequence ACCAGAAA registered a binding signal of -0.0241 E-score.

The sequence ACTACCAG showed a binding signal of 0.238 E-score.

In the case of CATCGAAA, the binding signal was 0.0782 E-score.

Turning to ACCTACTA, the binding signal came to 0.372 E-score.

AGCACGCG came in with a binding signal of -0.0941 E-score.

For CCATTCGG, the binding signal was -0.176 E-score.

Regarding AGAGCTAG, the binding signal is -0.0248 E-score.

Consider CCAAACAG, for which the binding signal was -0.0174 E-score.

On to CATGAACC, for which the binding signal is -0.18 E-score.

GACGACGA registered a binding signal of -0.0685 E-score.

The sequence AAAGGCTG registered a binding signal of -0.141 E-score.

Regarding CCCAATAC, the binding signal is -0.0829 E-score.

Consider AAGTGTGG, for which the binding signal was 0.0336 E-score.

Consider CCGGCGCA, for which the binding signal is -0.192 E-score.

CCCAAAAA returned a binding signal of 0.0798 E-score.

For the sequence CCATTTTC, the binding signal was -0.00971 E-score.

In turn, CCCGCCTC registered a binding signal of -0.371 E-score.

Take CAGCTTTC: the binding signal was -0.0895 E-score.

The sequence ATCATTAG gave a binding signal of 0.121 E-score.

Sequence CAGACCAC came in with a binding signal of -0.23 E-score.

Regarding AACTCACA, the binding signal came out at 0.103 E-score.

In turn, GCTGTTCC registered a binding signal of -0.0131 E-score.

AAAGGGCA came in with a binding signal of -0.0463 E-score.

CCTCCGTC registered a binding signal of -0.432 E-score.

As to AGTGCTCC, the binding signal was -0.387 E-score.

ATAGCCAA gave a binding signal of 0.0646 E-score.

Sequence CACCTCAA returned a binding signal of -0.0154 E-score.

Consider CGACTTCA, for which the binding signal was 0.0389 E-score.

With CAAAGTTA, the binding signal is 0.0253 E-score.

For the sequence CTCCGTAA, the binding signal was -0.163 E-score.

As for CTACGAAC, the binding signal is 0.0431 E-score.

For CTTCATTA, the binding signal amounted to 0.13 E-score.

On to CCCCGCTA, for which the binding signal is -0.291 E-score.

For the sequence TATATCGA, the binding signal worked out at 0.304 E-score.

AATGTAAC yielded a binding signal of 0.246 E-score.

The sequence TAATTGAA came in with a binding signal of 0.0218 E-score.

On to GTAGAGAA, for which the binding signal is 0.189 E-score.

In turn, GGACACAC gave a binding signal of -0.197 E-score.

Sequence GCCTCATA registered a binding signal of -0.166 E-score.

Sequence ATCATTTG gave a binding signal of 0.166 E-score.

GCACAAGC gave a binding signal of -0.16 E-score.

In turn, TCCATTCA had a binding signal of -0.123 E-score.

Regarding GCTTACGA, the binding signal is -0.00757 E-score.

Turning to GCTGGGGA, the binding signal was -0.275 E-score.

The sequence AAGGCATG gave a binding signal of -0.0797 E-score.

The sequence TGCTGAAA displayed a binding signal of -0.0464 E-score.

For AATCAGGG, the binding signal was -0.054 E-score.

For the sequence AGATTTAC, the binding signal is 0.29 E-score.

In turn, GAAAGATA displayed a binding signal of 0.241 E-score.

On to AGATGCAA, for which the binding signal is -0.00215 E-score.

CGGCGCGC had a binding signal of -0.318 E-score.

The sequence ACACTCAT gave a binding signal of -0.073 E-score.

As for GAATTACC, the binding signal was 0.216 E-score.

On to GCGTTTAA, for which the binding signal is -0.0485 E-score.

As to AAGCAGGA, the binding signal is -0.124 E-score.

Consider CAAGGTGG, for which the binding signal is -0.21 E-score.

Turning to AGTTATCC, the binding signal is 0.0385 E-score.

For CTAGAGCC, the binding signal is -0.223 E-score.

The sequence TCACTGCA displayed a binding signal of 0.017 E-score.

Turning to CGTTGATA, the binding signal came out at 0.219 E-score.

As to CGGCGAGA, the binding signal is -0.114 E-score.

On to CAGCCGTA, for which the binding signal is -0.029 E-score.

In turn, ACAGACTA returned a binding signal of 0.252 E-score.

In turn, CCGACGCG had a binding signal of -0.297 E-score.

ACCCGATC came in with a binding signal of -0.248 E-score.

GGATGGGA returned a binding signal of -0.123 E-score.

The sequence AAGACCAT returned a binding signal of -0.15 E-score.

As for CGTAAACC, the binding signal came to 0.143 E-score.

Turning to ACTGCACA, the binding signal was 0.19 E-score.

The sequence AATAGCTA came in with a binding signal of 0.358 E-score.

With GGGGGCGA, the binding signal is -0.301 E-score.

Turning to AAGGGTCT, the binding signal was -0.115 E-score.

ATCTTGGG registered a binding signal of -0.16 E-score.

ACCATTAG displayed a binding signal of 0.126 E-score.

Take CTTAATAC: the binding signal amounted to 0.18 E-score.

In turn, GCTGCTCA returned a binding signal of -0.193 E-score.

With CAGGTAGG, the binding signal was -0.226 E-score.

Turning to AGCATAAT, the binding signal amounted to 0.325 E-score.

As to GGGGCATA, the binding signal was -0.0458 E-score.

Regarding CTGAGATC, the binding signal was determined as 0.0666 E-score.

CTCTTAAC showed a binding signal of -0.035 E-score.

In turn, ATGGTATC registered a binding signal of 0.165 E-score.

On to GCAAGACC, for which the binding signal was -0.235 E-score.

CTAAATAC registered a binding signal of 0.351 E-score.

As to GCTATGGA, the binding signal was determined as 0.0828 E-score.

In the case of AACTCGAA, the binding signal is 0.03 E-score.

ATTGCGTA had a binding signal of 0.296 E-score.

As to GAAAGTTA, the binding signal amounted to 0.135 E-score.

TGCCAAAA came in with a binding signal of -0.08 E-score.

Sequence AGGCATGG came in with a binding signal of -0.277 E-score.

On to GAACAGGC, for which the binding signal was -0.0613 E-score.

As to CGGCCCTA, the binding signal is -0.27 E-score.

Take CTGTATAA: the binding signal was 0.265 E-score.

For AACGTCCC, the binding signal was -0.193 E-score.

CGCACGGA had a binding signal of -0.131 E-score.

For ATTTTCAA, the binding signal is -0.0223 E-score.

CAGCGACG came in with a binding signal of -0.136 E-score.

As to GACTAATC, the binding signal stood at 0.0382 E-score.

CAAAATCC returned a binding signal of -0.141 E-score.

Sequence AGGACAAT gave a binding signal of 0.133 E-score.

ATCGGTCG registered a binding signal of -0.141 E-score.

Turning to CGCTGCCA, the binding signal was -0.235 E-score.

Sequence ATCGCGCA displayed a binding signal of 0.0968 E-score.

As to CCATGCGC, the binding signal is -0.213 E-score.

For ATCCCTAA, the binding signal is -0.06 E-score.

In turn, ACACGTGC showed a binding signal of -0.0468 E-score.

As for TAGAGCGA, the binding signal was -0.0799 E-score.

For the sequence CAAGCACA, the binding signal is -0.0376 E-score.

CGGTTCTA yielded a binding signal of 0.09 E-score.

For AGGGCTTG, the binding signal is -0.305 E-score.

For the sequence AATGCCAT, the binding signal was 0.00982 E-score.

Take TTCCCAAA: the binding signal was -0.0989 E-score.

For the sequence ATACAGTA, the binding signal was found to be 0.319 E-score.

As for CAGAAAGC, the binding signal was -0.127 E-score.

Sequence GGACGTGA had a binding signal of -0.14 E-score.

With TGAATACA, the binding signal came out at 0.0213 E-score.

CGCAGGCA yielded a binding signal of -0.24 E-score.

As to AAATGATC, the binding signal was 0.143 E-score.

In turn, CATGGACC returned a binding signal of -0.282 E-score.

Take ATCATAGA: the binding signal came out at 0.174 E-score.

Consider AACGCGGC, for which the binding signal was -0.249 E-score.

For the sequence AATTAAGG, the binding signal worked out at 0.158 E-score.

As to AGTTCATC, the binding signal worked out at 0.119 E-score.

As for CGCCGACC, the binding signal is -0.441 E-score.

AAGTAAGA came in with a binding signal of 0.0339 E-score.

In turn, ACCTTCTG yielded a binding signal of -0.0843 E-score.

For the sequence GCACCCCC, the binding signal is -0.427 E-score.

With GGAACTAA, the binding signal was 0.246 E-score.

As for CCCGCGTA, the binding signal was -0.0236 E-score.

Values taken from article PMC6212790.
